Reference: article PMC10121161, “Delivering a toxic metal to the active site of urease” (Science Advances, 2023)

Target: the molecule itself
Assay: cryo-EM structure; HpUreFD/urease complex coexpressed in E. coli, purified by Strep-Tactin XT and Superose-6 SEC in 50 mM Hepes, 200 mM NaCl, 0.5 mM TCEP (pH 7.5); 0.5 mg/ml on grids; tetrahedral symmetry; 2.3 Å

B1: H. pylori urease (HpUreAB), in the cryo-EM sample (complex)
chain 1: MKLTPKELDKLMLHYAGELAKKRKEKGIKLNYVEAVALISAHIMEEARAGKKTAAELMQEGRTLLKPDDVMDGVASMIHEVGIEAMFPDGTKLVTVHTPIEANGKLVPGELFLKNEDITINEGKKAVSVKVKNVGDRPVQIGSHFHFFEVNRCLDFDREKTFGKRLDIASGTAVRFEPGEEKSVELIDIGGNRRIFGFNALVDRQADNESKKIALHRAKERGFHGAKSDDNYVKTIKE
chain 2: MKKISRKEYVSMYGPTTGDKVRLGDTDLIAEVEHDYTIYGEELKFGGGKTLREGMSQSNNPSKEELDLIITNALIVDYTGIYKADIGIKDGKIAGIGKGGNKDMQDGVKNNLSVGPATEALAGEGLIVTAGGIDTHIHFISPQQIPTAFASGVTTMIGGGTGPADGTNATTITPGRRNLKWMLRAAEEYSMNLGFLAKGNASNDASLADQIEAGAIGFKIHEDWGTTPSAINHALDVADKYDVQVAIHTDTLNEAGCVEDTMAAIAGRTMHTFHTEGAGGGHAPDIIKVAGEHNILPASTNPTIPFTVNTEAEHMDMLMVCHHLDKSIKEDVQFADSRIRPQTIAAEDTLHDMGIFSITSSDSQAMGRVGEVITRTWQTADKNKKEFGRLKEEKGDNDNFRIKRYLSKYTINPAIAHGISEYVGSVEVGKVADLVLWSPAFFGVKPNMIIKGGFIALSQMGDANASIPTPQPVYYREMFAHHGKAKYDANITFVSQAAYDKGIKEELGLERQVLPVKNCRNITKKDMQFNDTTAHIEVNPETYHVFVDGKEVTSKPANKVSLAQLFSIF
notes: Helicobacter pylori urease subunit HpUreA (γ and β domains); Helicobacter pylori urease subunit HpUreB (α domain); dodecamer of HpUreAB catalytic units (four trimers); copies: 12 + 12
With B1 the “stoichiometry N” value was 12.
